Test results as given in the supplement of paper PMC3334620.
The full ranking holds about 33,000 sequences; the median of “E-score (-0.5 to 0.5)” is about -0.053, and the highest 2% start at about 0.37. The list shows a part of the results.

molecular target: Hap1 (UniProt P0CE41); test: PBM E-score (8-mer binding enrichment) (E-score (-0.5 to 0.5)); higher = stronger / more preferred TF binding; most listed sequences are background and not binding sites; settings: protein concentration: 200 nM; construct: GST-DNA-binding domain
Chain of UniProt P0CE41 (P0CE41 whole entry, the tested form may be a part): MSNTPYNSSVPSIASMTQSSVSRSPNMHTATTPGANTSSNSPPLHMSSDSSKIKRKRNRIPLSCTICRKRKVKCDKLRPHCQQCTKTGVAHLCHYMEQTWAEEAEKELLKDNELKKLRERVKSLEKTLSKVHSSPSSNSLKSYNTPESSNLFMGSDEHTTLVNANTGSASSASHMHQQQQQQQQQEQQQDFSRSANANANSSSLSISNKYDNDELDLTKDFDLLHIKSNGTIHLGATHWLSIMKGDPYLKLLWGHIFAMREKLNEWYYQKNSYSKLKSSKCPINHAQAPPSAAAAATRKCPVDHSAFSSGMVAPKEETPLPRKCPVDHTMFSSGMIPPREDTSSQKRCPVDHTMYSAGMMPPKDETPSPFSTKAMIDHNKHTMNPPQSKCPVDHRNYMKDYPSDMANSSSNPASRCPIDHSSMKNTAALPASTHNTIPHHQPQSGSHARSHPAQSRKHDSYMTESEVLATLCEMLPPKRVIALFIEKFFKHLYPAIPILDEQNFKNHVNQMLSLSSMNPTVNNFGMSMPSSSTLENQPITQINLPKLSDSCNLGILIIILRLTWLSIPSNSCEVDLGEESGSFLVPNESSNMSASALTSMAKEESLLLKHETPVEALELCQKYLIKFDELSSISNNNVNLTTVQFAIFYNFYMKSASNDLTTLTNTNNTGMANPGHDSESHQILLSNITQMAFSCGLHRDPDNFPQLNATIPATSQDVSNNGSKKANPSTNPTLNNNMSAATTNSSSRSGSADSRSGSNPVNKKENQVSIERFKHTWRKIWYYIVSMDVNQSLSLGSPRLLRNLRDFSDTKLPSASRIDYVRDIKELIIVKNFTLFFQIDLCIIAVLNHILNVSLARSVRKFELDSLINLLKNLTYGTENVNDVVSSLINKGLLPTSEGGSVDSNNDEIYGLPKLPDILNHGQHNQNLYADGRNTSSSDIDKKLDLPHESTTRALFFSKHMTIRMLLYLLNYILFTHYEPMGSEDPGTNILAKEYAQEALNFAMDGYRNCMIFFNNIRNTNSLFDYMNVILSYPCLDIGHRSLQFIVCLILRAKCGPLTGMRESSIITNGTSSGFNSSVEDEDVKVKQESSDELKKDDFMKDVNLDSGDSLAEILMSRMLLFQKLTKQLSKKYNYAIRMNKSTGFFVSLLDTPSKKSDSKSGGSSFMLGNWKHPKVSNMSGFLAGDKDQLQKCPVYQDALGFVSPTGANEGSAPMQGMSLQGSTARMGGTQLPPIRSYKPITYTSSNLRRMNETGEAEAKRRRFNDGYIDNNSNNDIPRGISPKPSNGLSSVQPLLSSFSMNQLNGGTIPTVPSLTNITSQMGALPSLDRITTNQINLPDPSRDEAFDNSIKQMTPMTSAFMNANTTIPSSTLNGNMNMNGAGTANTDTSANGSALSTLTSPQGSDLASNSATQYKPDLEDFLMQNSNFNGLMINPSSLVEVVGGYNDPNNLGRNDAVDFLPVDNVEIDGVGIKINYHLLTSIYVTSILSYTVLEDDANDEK
Procedure, shortened: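 Yeast transcription factors carrying a GST tag, as full-length proteins or DNA-binding domains, were produced by PURExpress in vitro transcription/translation. About 100-200 nM protein was applied to universal all-10-mer Agilent arrays, double-stranded by primer extension on fresh or once-stripped slides. Bound protein was detected with fluorescent anti-GST, and scans were normalised with masliner. The Universal PBM Analysis Suite gave each ungapped eight-base word, pooled with its reverse complement, an E-score, a modified Wilcoxon-Mann-Whitney statistic.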

Sequence | PBM E-score
AGAACTTC | -0.108
CAAAAATG | 0.00202
CCTGACGC | -0.182
AAAGGTTG | -0.0906
AGGACAGG | -0.22
CAGGAGCA | -0.089
CATCGTCC | 0.18
GCGGCCGA | 0.335
AAGACTGC | -0.176
AGCGACTG | -0.306
TAAATAGA | -0.0909
ACACAGCA | -0.137
AAGTTTAG | -0.0281
CACCGCGC | 0.0964
AGGGTTTG | -0.00012
ATCACACG | -0.0143
CGGTTTGA | 0.0859
ATTCTGAA | -0.0357
ACTTAGGG | -0.0912
AAAGATTG | -0.173
CGGTTTGC | 0.196
CTGAATCC | -0.0461
GGGCGGCA | 0.268
AGGAATCG | 0.0601
CCGAGCGG | 0.395

Sequence | PBM E-score
AGCCTCAG | -0.177
GTCATTTA | -0.216
CATGGTGC | -0.139
AGGCGATC | -0.243
AAGATCCC | -0.0129
ACCGCGAT | 0.163
CGTGGTGC | -0.0732
ATTGGTGA | -0.281
GGATGAGA | -0.148
GAGTTCAA | -0.182
CCACATGC | -0.0285
ATTACACA | -0.12
AGAGTCCT | -0.181
GATCCTGC | 0.0253
CCCGAAGC | 0.332
TACTGCCA | -0.135
CACTTATG | 0.0486
GACCCAGA | -0.028
ATTAAAAC | 0.111
GCGCCAAC | -0.0255
CGCGGGAG | 0.0987
TCTTCTCA | -0.0532
ACCAGAGT | -0.222
CAGGAGCC | -0.0755
AGTGCGCA | 0.0803

Sequence | PBM E-score
ACTACGAT | -0.109
ATGCGCCG | 0.226
AGGTTGGC | 0.00268
GTGGCACA | -0.261
AGTGTACC | -0.274
CCGATGAA | 0.279
TAGCCCGA | 0.255
CTGGTTCC | 0.123
GCCGGCGC | 0.366
CTTTTTTC | 0.0157
ATCACGAC | -0.206
GCACTTGA | -0.172
CGTATCAA | -0.13
CTGATCAG | -0.0613
AACAATAG | -0.145
AGATTCTC | -0.0388
ATGCGCTC | -0.11
ACACCTTA | -0.117
TGATTCCA | -0.249
ACATAAGA | -0.108
ATTGTCGA | -0.0466
AATGCAGG | -0.175
CACATGTC | -0.172
AACAGACA | 0.0176
AGATGCAA | -0.345

Sequence | PBM E-score
AACAGCAG | -0.0345
CAATTCCG | 0.359
GACAGACC | 0.0217
GTCCGCAA | 0.305
ATGGCAGG | 0.058
GCCTTTCA | -0.00638
GGAGTCAC | -0.109
AGACAAGG | -0.0749
ATGGGCGA | -0.0906
ACTATGAA | -0.205
CGCAGCTC | -0.132
GCGTCTAA | -0.0983
AAATACTC | -0.00865
CGAGAGGC | -0.00905
ACCTACCA | -0.228
AGGTCGCG | 0.0123
CGCTAGAA | -0.0792
ATGGCGGG | 0.246
CGGCAGCA | 0.0762
TCGTGGCA | -0.16
GCGCTTAA | 0.0461
CGACTTCC | 0.038
ACCTGCTA | -0.123
ACTTATCC | 0.235
AGTTGAGG | -0.0744

Sequence | PBM E-score
GCCTGGAC | -0.0392
AAGGTTTC | 0.0735
ATTGAATC | -0.0857
AGAGAAGG | -0.0455
ATTTCACG | 0.1
AGACTAAG | -0.103
GAGCTTGA | -0.124
CGGAACCC | 0.27
GAAGGTTA | -0.0336
GCCACTGA | -0.162
CCCTTGAG | -0.0274
ATAACTTC | 0.16
AAGGAGGA | -0.208
GGAAAATA | 0.123
GAGCCTGA | -0.127
CCATAACG | 0.0784
AACGTCTA | -0.0706
GACATACA | 0.112
ACTAACTG | 0.00942
CATTTGTC | -0.0813
GTAGAGGA | -0.272
CATGAGGG | -0.145
GCCAGAGA | -0.227
ACCCTCGG | 0.299
CATACTGA | -0.207

Sequence | PBM E-score
ACACTGGA | -0.0745
GCTGTATA | -0.365
AACGCCGT | 0.273
AATCAGCG | 0.103
CCTATTGC | -0.0356
AAATACCT | -0.0139
AAATTCTC | 0.00787
GCATGGGA | -0.0766
CGACCTGA | -0.223
GATCCCAA | -0.0661
GAAATACC | 0.239
GAAGCCCC | 0.15
AGGCAGGG | -0.242
AGGAGAGG | -0.388
CAGCGAGC | 0.0705
ATAGGAAT | -0.193
CAGCATGG | -0.158
ATATGACC | 0.153
CTTCATGA | 0.0075
ACGCACCC | -0.129
CTCTGTAC | -0.252
ATCAGAAT | -0.166
CTACGTTC | -0.194
GAACGCTC | -0.103
AGCCCGCC | 0.184

Sequence | PBM E-score
AGCAATCA | -0.212
ATTTTTGG | -0.155
ACTAGTGC | -0.0626
CACACCCA | -0.0406
ACACTAAC | -0.0076
CGATAGAC | 0.226
GTCTCCAA | -0.102
CCGACGTA | 0.269
GTACTAAA | -0.00722
CCTCCTAC | -0.263
CCCCGGAC | 0.397
CACCCGGA | 0.364
CTTACAGC | -0.112
CCACTCAG | -0.21
CAACGGAG | 0.256
CTTACTAC | -0.111
ATCGCCCC | -0.0327
GGAGGGAC | -0.0986
CAGGACTG | -0.342
TCCCTCGA | -0.178
CGAACGCG | 0.198
GCAACTAA | 0.127
CGTTTCGC | 0.219
CAAGAAGC | 0.0198
AGGCCTCA | -0.261

Sequence | PBM E-score
AGTAAACA | 0.0169
GTCGTCTA | -0.209
CCTTCATA | -0.0295
GCCCCGCC | 0.215
CGTCGTGA | 0.0299
ACTAACGA | -0.132
AGGGGACT | -0.0934
GTGCGCAA | -0.0628
ACCTTTGG | -0.229
GAGTTAGC | 0.194
AAGGTAGC | -0.239
CCTGCACG | -0.173
ATGCTACA | -0.147
CTATTGAC | -0.0417
CGTAAGAA | 0.113
AGAGCTGC | -0.128
AGTATAGC | -0.167
GATAATCC | 0.334
AGCGTTCG | -0.147
ATAGGGCG | 0.0891
ATAAGCCA | -0.0858
ACAGGTGG | 0.107
CGCCCACA | -0.134
CGCGTACA | -0.0167
AGTGCGTC | -0.0787

Sequence | PBM E-score
GACCATAA | -0.0392
TAAAGGAA | -0.0525
CGTAGACC | 0.0187
GCTCACGA | -0.317
GATTGTCC | 0.205
CCGCCGGA | 0.402
AACCAAGC | -0.0625
ATGCTGTC | -0.243
ATGCGTGA | 0.00074
ACAGTTAC | -0.0301
AACCACGC | -0.205
CTATGGTA | -0.098
ACAATATC | 0.0476
CGGTCGGA | 0.367
CTCGCCAA | -0.0917
CCGCATAG | 0.117
GCTTAAAC | -0.103
ACCATGTA | -0.177
ATTTGGTG | -0.267
ATCACCGG | 0.382
ATTCCGTA | 0.259
AGGAGCAG | -0.162
CATTACTC | 0.0705
GTAATGAA | -0.197
AAACCATT | -0.214

Sequence | PBM E-score
ATGTGCCC | -0.0642
CCTGAGTC | -0.0525
GAGAACGC | 0.0263
AAACTCGA | -0.0961
CTGCTCGA | -0.125
TAGCCCCA | -0.117
ACCATATG | -0.335
CGCGTGCC | 0.0532
CAGAAGAC | -0.145
AGGTCCAG | -0.0779
CCCCCTCC | -0.0459
GTGAGGCA | -0.0762
CTAAGGAA | -0.0347
ACACATGG | -0.253
AAGTCCCT | -0.278
TCCCCTCA | -0.154
GGAGAAGA | 0.121
CTTTGCTA | -0.314
GCGTTTAC | -0.00734
CGCCGTAA | 0.283
ATATTGGG | 0.0378
CCAAAGCG | 0.0924
CATGTCAA | -0.227
AGTTAACT | 0.197
GAATCAGC | -0.175

Sequence | PBM E-score
AATGACCC | -0.0706
AGAGCGCG | 0.012
ATCTCAAC | -0.0257
ACAGGGTG | -0.215
CCCTATTA | -0.216
CAGGCCAA | -0.128
ACTCGATA | -0.00194
CATCGAAA | -0.158
AATGTCGG | 0.254
AATACGCG | 0.0739
CCCCTATA | -0.155
TATCATCA | -0.0968
GTCAACTA | -0.144
ACAGCGGT | 0.0813
GGCGTTAA | 0.31
ATCACGGA | 0.352
CCGTGTCG | 0.252
ACAGAGCC | -0.156
CACCAATC | -0.0582
ACGAGTCT | -0.144
CTGGCAGA | -0.107
CTACGTCA | -0.169
CACGTTAG | -0.273
AGCTGGAG | -0.157
ATGCGCCC | 0.104

Sequence | PBM E-score
ATCGTTTA | -0.228
CGTTGGGA | -0.141
TGAATAAA | -0.178
GACAGTAA | 0.0206
ATGAAGGG | -0.25
CTACGGAG | 0.32
GCCAGACC | 0.0912
CAAGCTAC | -0.183
AGGGCTTG | -0.241
CGGGATAG | 0.195
ACCACTGG | -0.0951
CGCCGAAG | 0.359
GCCCAGGC | -0.268
ACTGCAAT | -0.0894
GACGCGCC | -0.00929
ACTCGCGA | 0.0632
AGCAGCAG | -0.132
CGACCACA | -0.186
ACAATTCC | -0.0172
ACAACGAA | -0.0105
AGGGGGCA | -0.143
CGATCCCA | -0.0718
AAGAAACT | -0.0888
ATCTGTTA | -0.0286
ATTATGGC | -0.0166

Sequence | PBM E-score
CAAAATGA | -0.177
GTGGTATA | -0.167
AACATAAT | 0.0438
CCTTATCC | 0.14
CCCCCTGA | -0.257
ACGAGCAA | -0.188
CAATGAAC | -0.0456
ACACCACG | -0.19
CTATCGTA | -0.17
CAATTTTC | 0.0727
AGATCCTC | -0.0657
ACCATGAG | -0.129
ATGTTTTA | -0.302
AGCATCTG | -0.0944
TAACCTGA | -0.14
AGAGAGCC | -0.2
TACAACCA | -0.0392
CTTTTATA | -0.221
ACGAATCC | -0.00491
AGCTCTCC | -0.106
CCGCAGTC | 0.105
CCTTACAG | -0.107
TTGATCAA | -0.141
ACGGACGA | 0.359
CAGTAACA | 0.00081

Sequence | PBM E-score
CCAAGCCC | -0.0109
GTTGCGGA | 0.175
GTGGGATA | -0.0148
ATCAGTGG | -0.192
ACATTGGG | -0.162
ATTCTACA | -0.0706
AAATTGGG | -0.0238
AGAGGGCC | -0.16
TACTTAGA | -0.362
ACCAGGCA | -0.154
CTAACGCC | 0.306
AATATGGC | -0.0273
AGTGCACA | -0.00991
CAAAATGC | -0.108
AGCCTGTC | -0.106
AGGGTTAT | -0.22
CCATGAGA | -0.0127
GCTATGTA | -0.237
GAAACCAA | 0.12
